Here are results for 34 variants from the RNAGym collection of RNA variant scans (doi:10.1093/nar/gkz1192).

B1: CPEB3 Ribozyme (parent)
chain: UAACAGGGGGCCACAGCAGAAGCGUUCACGUCGCAGCCCCUGUCAGAUUCUGGUGAAUCUGCGAAUUCUGCUGUAUAUCUC

The source gives no read counts; variants with many changes may rest on few reads.

Variants of B1 are the subject of this data set. The data set can be described thus: self-cleavage, relative activity (ratio to wild type); higher = more cleavage; in vitro, sequencing. The essentials: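 Libraries of CPEB3 self-cleaving ribozyme mutants came from rounds of error-prone PCR and carried barcodes, which DNA sequencing matched to variants. In vitro transcription used T7 RNA polymerase at 37°C for 5 hours, with a further 15 min in DNase I before EDTA stopped the reaction; the ribozymes cleaved during both steps. The RNA was reverse transcribed with template switching and sequenced on Illumina. Relative activity is the cleaved/total read fraction of a variant divided by that of the unmutated ribozyme, averaged over three batches with at least 5 reads.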
Consider UAACAGGGGGCCACAGCAGAGGCCUUCACGUCGCAGCCCCUGCCAGAUUCAGGUGAAUCUGCGAAUUCUGCUGUAUAUCUC, for which the self-cleavage stood at 0.11.
For UAACAGGGGGCCACAGCAGAGGCGUUCACGUCGCAGCCCCUGUCAGAUUCUCGUGGAUCUGCGAAUUCUGCUGUAUAUCUC, the self-cleavage amounted to 0.73.
The value for UAACAGGGGGCCACAGCAGAGGCGUUCACGUCACUGCCCCUGUCAGAUUCAGGUGAAUCUGCGGAUUCUGCGGUAUAUCUC was 0.05.
UAACAGGGGGCCACAGCAGAGGCGUUCACGUCGCAGCCCCUGUCAGAUUCUGGUCAAUCUGCGAAUUCUGCUGUGUAUCUC: the self-cleavage was 0.52.
The value for UAACAGGGGGCCACAGCAGAGGCGUUCACAUCGCAGCCUCUACCAGAUUCUGGUGAAUCUGCGAAUUCUGCUGUAUAUCUC was 0.08.
For the variant UAACAGGGGGCCACAGCAGAGGCGUUCACGUCGCAGCCCCUAUCAGAUUCUGGUGAAUCUGCGAAUUCUGCUGUGUAUCCC, the self-cleavage stood at 0.05.
On to UAACAGGGGGCCACAGCAGAGGCGUUCACGUCGCAGCCCCUGUCAGAUUCUGGUCGGUCUGCGAAAUCUGCUGUAUAUCCC, for which the self-cleavage was 0.12.
The value for UAACAGGGGGCCACAGCAGAGGCGUUCACAUCGCAGCCCCUGUCUGAUUCUGGCGAAUCUGCGAAUUCGGCUGUAUAUCUC was 0.06; that for UAACAGGGGGCCACAGCAGAGGCGUUCACAUCGCAGCCCCUGUCAGAUUCUGGCGUAUCUGCGAACUCUGCUGUAUAACUC was 0.05; that for UAACAGGGGGCCACAGCAGAGGCGAUCACGUCGCAGCCCCUGUCAGGUCCUGGUGAAUCUGCGAAUUCUGCUGUAUAUCUC was 0.03.
The value for UAACAGGGGGCCACAGCAGAGGCCUUCACGCCGCAGCCCCUGUCAGAUUCUGGUGAAUCUGUGAAUUCUGCUGUAUAUCUC was 0.16.
The value for UAACAGGGGGCCACAGCAGAGGCGUUCACGUCGCAGCCCCUGUCAGAUUCUAGUGAAUCUGAGAAUUCUGCUGUAUAUCUC was 0.49; that for UAACAGGGGGCCACAGCAGAGGCGUUCACAUCGCAGCCCCUGUCAGAUUCUGGUGAAUCUGCGAAUUCUGCUGUACACCUC was 0.07.
For UAACAGGGGGCCACAGCAGAGGCGAUCACGUCGCAGCCCCUGUCAGAUUCUGGUGAAUCUGCGGAUUCUGCUGUAUAUUUC, the self-cleavage worked out at 0.3.
UAACAGGGGGCCACAGCAGAGGCGUUCACAUCGGAGCCCCCGUCAGAUUCAGGUGAAUCUGCGAAUUCUGCUGUAUAUCUC: the self-cleavage was 0.1.
Next, UAACAGGGGGCCACAGCAGAGGCGAUCACGUCGCAGCCCCUGUCCGAUUCUGGUGAAUCUGCGAACUCUGCUGUAUAUCUC: 0.15.
UAACAGGGGGCCACAGCAGAGGCGUUCACGUCGCAACCCCUGUCAGAUUCUGGUGAAUCCGCGAAUUCUGCUGUAUACCUC: the self-cleavage turned out to be 0.05.
As for UAACAGGGGGCCACAGCAGAGGCGUUCACGUCUCAGCCCCUGUCUGAUUCUGGUGAAUCUGUGAAUUCUGCUGUAUAUCUC, the self-cleavage is 0.11.
Next, UAACAGGGGGCCACAGCAGAGGCCUUCACGUUGCAGCCCCUGUCGGAUUCUGGUGGAUCUGCGAACUCUGCUGUAUAUCUC: 0.08.
Next, UAACAGGGGGCCACAGCAGAGGCGUUCACUUCGCAGCCCCUGUCAGAUUCUGGUGAAUCUGCGAAUUCAGCUGUAUAUCUC: 0.43.
Next, UAACAGGGGGCCACAGCAGAGGCGUUCACGUCGCACCCCCUGUCAGAUUCUGGUGAAUCUGCGAAUUCUGCUGUUUAUCUC: 0.05.
Consider UAACAGGGGGCCACAGCAGAGGCGUUCACGUCACAGCCCCUGUCAGAUUCCGGUGGAUCUGCGAAUUCUGCUGUAUAUCUC, for which the self-cleavage was 0.05.
The value for UAACAGGGGGCCACAGCAGAGGCGUUCACUUCGCAGCCCCUGUCAGAUUCCGGUGAAUCUGCGAAUUCAGCUGUAUAUCUC was 0.42.
With UAACAGGGGGCCACAGCAGAGGCGUUCACGUCGCAGCCCCUUUCAGAUUCUGGUGAAUCUGCGAAUUCUGCUGCUUAUCUC, the self-cleavage stood at 0.61.
Regarding UAACAGGGGGCCACAGCAGAGGCGAUCGCGUCGCAGCCCCAGUCAGAUUCAGGUGAAUCUGCGAAUUCUGCUGUAUAUCUC, the self-cleavage was found to be 0.35.
As to UAACAGGGGGCCACAGCAGAGGCGUUCACGUCACAGCCCCUGUCAGAUUCUGGUGAAUCUGCGAAUUCUGGUGUAUAUCUC, the self-cleavage was 0.08.
The value for UAACAGGGGGCCACAGCAGAGGCGUUCACGUCCCAGCCCCUGCCAGAUUCUGGUGAAUCAGCGAAUCCUGCUGUAUAUCUC was 0.09; that for UAACAGGGGGCCACAGCAGAGGCGUUCACGUCGCAGCCCCUGUCAGAUUCUGGUGAAUCUGCCAAUUCUGCUGUUUACCUC was 0.51; that for UAACAGGGGGCCACAGCAGAGGCGAUCACGUCGCAGCCCCUGUCAGGUUCUGGCGAAUCUGCGAAUUCUGCUGUAUAUCUC was 0.18.
For the variant UAACAGGGGGCCACAGCAGAGGCCUUCACGUCGCGGCCCCUGUCGGAUUCUGGUGAAUCUGCGUAUUCUGCUGUAUAUCUC, the self-cleavage was 0.05.
Next, UAACAGGGGGCCACAGCAGAGGCGUUCACGUCGCAACCCCUGUCAGAUUCUGGUGGAUCUGCGAAUUCUGCUGUAUAUCUC: 0.17.
The value for UAACAGGGGGCCACAGCAGAGGCGUUCACAUCGCAGACCCUGUCAGAUUCGGGUGAGUCUGCGAAUUCCGCUGUAUAUCUC was 0.21; that for UAACAGGGGGCCACAGCAGAGGCGUUCACAUCGCAGCCCCUGUCAGAUUCUGGUGGAUCUGCGAAUUCUGCUGUAUAUCUC was 0.38.
For the variant UAACAGGGGGCCACAGCAGAGGCGAUCACGUCGCGGCCCCUGUCAGAUUCUGGUGAAUCUGCGAAUUCAGCUGUAAAUCUC, the self-cleavage was 0.03.
